According to article PMC7185459 (Antiviral Research, 2015):

Test system: SRI 29365-resistant mutant hRSV
Assay type: cell-based, Human respiratory syncytial virus

c1coc(-c2nn3c(Cn4cnc5ccccc54)nnc3s2)c1 [SRI 29365, 1-[6-(2-furyl)[1,2,4]triazolo[3,4-b][1,3,4]thiadiazol-3-yl]methyl-1H-benzimidazole]
reduction of virus TCID50: less than 10 fold
